44 sequences from the supplement of paper PMC11417369 can be followed below.

± gives the standard deviation of the averaged measurements. The list shows a part of the results.

In the test the test system is PfAP2-G AP2 domain (GST-tagged). The test can be described thus: gcPBM binding intensity (ln(normalized median fluorescence intensity)); higher = stronger DNA binding. In a few lines: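 DNA-binding domains from P. falciparum, fused to GST and produced in E. coli, were put on an Agilent 4 × 180k double-stranded probe array for 1 h in 1× PBS holding 1% milk, 0.2 mg/ml BSA, 0.5% salmon testes DNA and 0.03% Triton X-100. Probes were primer-extended, 36 bp long and drawn from intergenic genomic regions, with negative controls included. After Alexa488 anti-GST antibody detection and a 488 nm scan, binding intensity was set as the highest Masliner-normalised natural-log median intensity across replicate spots of either probe orientation.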
Take “TATATGTAGATTAAACGTACTTACAACGGAATTATC [XGTACX_site3036]”: the “gcPBM binding intensity (ln)” value was determined as 10.9 ± 0.51. Consider “TTAATACTTTTTTCTGTACACACTTGATTTACTATA [CACACA_site2799]”, for which the “gcPBM binding intensity (ln)” value is 11.5 ± 0.81.

Regarding “GAAGGAAAAGATACGATAAAATAAGATATTAATTTA [GTGCAC_negctrl_site419]”, the “gcPBM binding intensity (ln)” value stood at 9.71. Take “ATATATATATATATATGTACATAATGCATATAATAT [XGTACX_site6142]”: the “gcPBM binding intensity (ln)” value was 11.1 ± 0.52. Consider “TAAACACCCATACATACACACATACATACACCCATA [CACACA_site5125]”, for which the “gcPBM binding intensity (ln)” value came out at 10.2 ± 0.27. In the case of “TTCTTCAATATATTCTTACACACTTAAAAAAAAAAA [CACACA_site228]”, the “gcPBM binding intensity (ln)” value is 9.99 ± 0.45. With “TTTGTTATATTTAATACACACATATTATAAACACAT [CACACA_site7703]” the figure was 10.1 ± 0.12.

Regarding “TATGAAAAGTAAAGTACACACAGGAAAAAAAAAAAA [CACACA_site1749]”, the “gcPBM binding intensity (ln)” value stood at 11.4 ± 1.1. For the sequence “ATAAATAAAGGACACACACACACACTAATAAAAAAA [CACACA_site8840]”, the “gcPBM binding intensity (ln)” value is 11.2 ± 0.82. For “TATATAATATATTTATGTACTCACAATGGGGTCTAC [XGTACX_site2691]”, the “gcPBM binding intensity (ln)” value came to 11.4 ± 0.85. Turning to GTATATAAATAAATAGTGCATTATTAAAAATAATGT, the “gcPBM binding intensity (ln)” value stood at 10.1 ± 0.29. For “TTTTTTTTTTTTTATTGTACATACTTTTAAATATAT [XGTACX_site4303]”, the “gcPBM binding intensity (ln)” value amounted to 11.1 ± 0.95.

Take “ATATATTTATATTTTTGTACCCAAAATTGTTTGATG [XGTACX_site3581]”: the “gcPBM binding intensity (ln)” value stood at 11.2 ± 0.72. With “ATTGAGGCTGGTTATATAATAATTTTATTATTTTAG [GTGCAC_negctrl_site409]”, the “gcPBM binding intensity (ln)” value was 9.97 ± 0.11.

“TAAAAGTTGAAGCACACACACAAAAGAAATACAATA [CACACA_site6649]”: the “gcPBM binding intensity (ln)” value amounted to 10.3 ± 0.22. In the case of “GTATACAACATATGAACACACAAAATATTTTTTTTT [CACACA_site2928]”, the “gcPBM binding intensity (ln)” value is 9.97 ± 0.071.

In the case of “TATCTCCACAAAAGATGTACTCATATTAATTTATAA [XGTACX_site3535]”, the “gcPBM binding intensity (ln)” value was found to be 11.4 ± 0.84.

Consider “TTAAAGCTTGCATATACACACATACATAAATTCATA [CACACA_site7208]”, for which the “gcPBM binding intensity (ln)” value turned out to be 10 ± 0.18. As to “TACATACACAAATACACACACAAATACATACCCAAA [CACACA_site4550]”, the “gcPBM binding intensity (ln)” value was 10.3 ± 0.28.

“TTTTTTCTTTTTTTTTTTTTTTTCTTTTTTTTTTTT [GTGCAC_negctrl_site196]”: the “gcPBM binding intensity (ln)” value was 9.85 ± 0.099. As for “TACGTGAAATTATATACACACATAAATATGGGTGTA [CACACA_site5687]”, the “gcPBM binding intensity (ln)” value is 9.805 ± 0.078. As for “AAAATATATTAAGGCACACACATACAGATATATATA [CACACA_site5951]”, the “gcPBM binding intensity (ln)” value turned out to be 10.08 ± 0.042. Regarding “GGTATACTCAAGTATACACACATATATATATATATA [CACACA_site5746]”, the “gcPBM binding intensity (ln)” value is 10.6 ± 0.28. With “GAAATTTTATTACTTTTACACACCTATATATTATTC [CACACA_site9076]”, the “gcPBM binding intensity (ln)” value stood at 9.97 ± 0.11.

Take “ATATTATATATACACGCACACACACTAATATATATA [CACACA_site9092]”: the “gcPBM binding intensity (ln)” value came to 10.3 ± 0.28.

As to “TACAAAAAAAAAGAACGTACAAAAAATTTCAAAAAT [XGTACX_site5860]”, the “gcPBM binding intensity (ln)” value was found to be 11.1 ± 0.54. Regarding “TATGTATATATATTAACACACAAAAAAAAAAAAAAA [CACACA_site1812]”, the “gcPBM binding intensity (ln)” value stood at 9.79 ± 0.52.

As for “TTAAACTATACCAAAACACACATACAAAATATAAAA [CACACA_site5494]”, the “gcPBM binding intensity (ln)” value was 10.07 ± 0.014. As to “AACAATATGGATGTATGTACACATATAGAACGTTAT [XGTACX_site7142]”, the “gcPBM binding intensity (ln)” value worked out at 11.4 ± 0.7.

Consider “TATGCATTTATGCATTGTACTTTTATAGATTCCACC [XGTACX_site7121]”, for which the “gcPBM binding intensity (ln)” value stood at 11.2 ± 0.96. As to “ACATAAGACACAAATACACACAAAAATATATAACAA [CACACA_site4082]”, the “gcPBM binding intensity (ln)” value worked out at 10.2 ± 0.29. Take “TACATGATAGATCACACACACATATAAATATATATA [CACACA_site5562]”: the “gcPBM binding intensity (ln)” value came out at 9.91 ± 0.18. For the sequence “TAAAATAACTCACAAAGTACAAAAATAAGCATATGA [XGTACX_site7046]”, the “gcPBM binding intensity (ln)” value stood at 10.7 ± 0.33. Take “CAAAAATAAAAGAAATGTACAAAAAATAATAAAAAA [XGTACX_site6597]”: the “gcPBM binding intensity (ln)” value worked out at 10.7 ± 0.27. Regarding “TAATAAACTTAAAAATGTACATATATTTATTATTAC [XGTACX_site4321]”, the “gcPBM binding intensity (ln)” value was found to be 11.2 ± 0.74. For “AAAATTCATAAATACACACACGCACATATATATATA [CACACA_site4227]”, the “gcPBM binding intensity (ln)” value stood at 10.3 ± 0.4. On to “GAATATTCAACATAATGTACAAGTATTCATTTCTTT [XGTACX_site7860]”, for which the “gcPBM binding intensity (ln)” value came to 10.8 ± 0.38. For “AAGAAAAAGTATCCTCTATCTTTATATAAACTATTA [TGCATGCA_negctrl_site2]”, the “gcPBM binding intensity (ln)” value stood at 10.4 ± 0.2.

With “ATGTATATATTTTTATGTACATATTTTTAATTTATA [XGTACX_site2982]”, the “gcPBM binding intensity (ln)” value amounted to 11.4 ± 0.87. With “CATACATATACTTTGTGTACATATATATATTATATA [XGTACX_site97]” the figure was 11.4 ± 0.78; with “TAATAAAAAATTAAAAAAAATAAAAATAAAAATAAA [GTGCAC_negctrl_site78]”, 9.29 ± 0.18.

Take “TTTTTATTTAGCTAAGCATGCTAACGATGACACTTC [TGCATGCA_site79]”: the “gcPBM binding intensity (ln)” value was 9.84 ± 0.14. On to “TTTATACTTTTAAATTGTACTATAAAAAGGAATACA [XGTACX_site2537]”, for which the “gcPBM binding intensity (ln)” value stood at 11 ± 0.64. As for “AAATATATATTCATGTGTACACACAAAAAAAAATAA [XGTACX_site4552]”, the “gcPBM binding intensity (ln)” value was found to be 11.6 ± 0.84.
